# Test results as given in PubChem BioAssay AID485344 (National Center for Advancing Translational Sciences (NCATS), 2010).
# Values joined by “and” are separate entries in the source; they are usually repeats but may differ in a detail not shown here. Equal entries are not always repeated. Hit rate of the full screen: of about 340,000 compounds, about 6,900 (2%) were called active. No stated cut-off is given here; in the data, active means inhibition above about 30%; inactive means below that, where a call was filed. Only a part is listed here, and it is no random draw. Entries without a call were filed so in the source.
# Biological target: D(2) dopamine receptor (Homo sapiens) (UniProt P14416)
# Experiment: HTS Assay for Allosteric Antagonists of the Human D2 Dopamine Receptor: Primary Screen for Antagonists; further: 0% is about no effect
# Details: HEK293 TREx D2 cells, calcium flux, dopamine EC80; at 10 µM; stronger effect = higher value
# In short: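 Antagonism is scored as inhibition of an EC80 dopamine-evoked calcium signal in a force-coupled, tetracycline-inducible HEK293 T-REx D2 line, with compound present 180 s before agonist.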
# Chain of UniProt P14416 (P14416 whole entry, looked up): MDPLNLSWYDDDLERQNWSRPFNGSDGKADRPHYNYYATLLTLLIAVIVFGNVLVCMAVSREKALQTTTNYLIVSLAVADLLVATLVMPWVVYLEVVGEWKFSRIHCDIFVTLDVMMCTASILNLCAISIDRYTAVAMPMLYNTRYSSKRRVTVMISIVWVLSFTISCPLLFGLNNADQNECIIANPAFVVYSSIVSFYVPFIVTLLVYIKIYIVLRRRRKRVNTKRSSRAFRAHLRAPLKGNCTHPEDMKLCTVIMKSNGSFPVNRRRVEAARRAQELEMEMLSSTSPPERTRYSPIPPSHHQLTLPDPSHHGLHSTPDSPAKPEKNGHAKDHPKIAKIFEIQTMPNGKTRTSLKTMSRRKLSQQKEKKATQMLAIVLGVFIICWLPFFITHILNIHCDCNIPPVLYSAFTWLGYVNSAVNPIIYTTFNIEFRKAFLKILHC
row,Compound,inhibition
1,CCC(C)NC(=O)Cn1c(-c2cccs2)cc2cc(Cl)ccc21 (configuration not stated),2.96%
2,CC1CC(C)CN(CCOCCSc2ccc(Cl)cc2)C1 (configuration not stated),active: 64.7%
3,Cc1ccc(CN(C(=O)c2ccccc2[N+](=O)[O-])c2ccccn2)cc1,-11.6%
4,Cc1cc(N2CCC(C(=O)NCCC(C)C)CC2)n2nc(C)c(-c3ccc(Cl)cc3)c2n1,-12.9%
5,Cc1ccc(-c2nc3c4ccccc4n(CC(=O)N4CCN(c5ccc(F)cc5)CC4)c(=O)n3n2)cc1,0.31%
6,Cc1cc(C)cc(Nc2cc(C)nc3nc(-c4ccco4)nn23)c1,-27.7%
7,O=C(COC(=O)c1ccc(Sc2ccccc2)c([N+](=O)[O-])c1)NC1CCS(=O)(=O)C1 (configuration not stated),active: 32.2%
8,CSc1cccc(NC(=O)CN2C(=O)COc3ccc(S(=O)(=O)N4CCC(C)CC4)cc32)c1,-7.25%
9,Cc1ccccc1CNC(=O)c1ccc2[nH]c(C)c(C)c2c1,5.01%
10,CC(C)(C)c1ccccc1NC(=O)c1cnn2c(C(F)F)cc(-c3ccccc3)nc12,-16.4%
11,COc1ccccc1NC(=O)CSc1oc(-c2ccc(F)cc2)nc1S(=O)(=O)c1ccc(Br)cc1,-10.4%
12,Cn1c(=O)c2c(SCC(=O)Nc3ccc(F)cc3F)nc(C3CCCC3)nc2n(C)c1=O,4.93%
13,CCOC(=O)c1cnc(N2CCN(c3ccc(C)cc3C)CC2)c2ccccc12,-4.34%
14,Cc1cc(C)c(NC(=O)Cn2c(=O)n(CCC(=O)NCc3ccc4c(c3)OCO4)c(=O)c3ccccc32)c(C)c1,10.1%
15,CCCCn1c(CCC)nc([N+](=O)[O-])c1Sc1ccc(Cl)cn1,active: 40.2%
16,CC(=O)Nc1ccc(C(=O)CSc2nnc3cc(C)c4ccccc4n23)cc1,-22.3%
17,CCOC(=O)C1CCN(C(=O)CSc2c3c(nc4ccc(Cl)cc24)CCCC3)CC1,10.9%
18,COc1ccc(CCC(=O)NC2CC(=O)N(c3ccc(C)c(C)c3)C2)cc1 (configuration not stated),-7.61%
19,Cc1ccc(CNC(=O)c2ccc(-c3nc(CN4CCc5ccccc54)c(C)o3)cc2)cc1,-0.681%
20,Cc1cc(C)c(NC(=O)CSc2nnc3[nH]c(=O)cc(C)n23)c(C)c1,-15%
21,O=c1c2ccccc2n2c(-c3ccc(F)c(F)c3)nnc2n1CCc1ccccc1,-0.354%
22,CCOC(=O)c1ccccc1NC1(c2ccc(OC)cc2)C(=O)c2ccccc2C1=O,-4.51%
23,COCCN(C(=O)c1ccccc1)c1nnc(-c2cccnc2)s1,active: 47.9%
24,CCC(=O)Nc1ccc2nc(SCC(=O)N3CCc4ccccc43)sc2c1,15.3%
25,CCOC(=O)c1c(S(=O)(=O)N2CCCC(C(=O)Nc3ccc(C)cc3C)C2)c(C)n(CC)c1C (configuration not stated),11.3%

row,Compound,inhibition
1,COC(=O)c1ccc(C2c3c(oc4cc(C)c(C)cc4c3=O)C(=O)N2c2ccccn2)cc1 (configuration not stated),4.52%
2,Cc1nc2sc(C(=O)OCC(=O)N3c4ccccc4CC3C)c(C)c2c(=O)[nH]1 (configuration not stated),active: 52.3%
3,COCCc1nn2c(=O)cc(COC(=O)COc3ccccc3C)nc2s1,14.2%
4,O=C(CCS(=O)(=O)c1cc2c3c(c1)CCN3C(=O)CC2)NCc1ccc(F)cc1,-4.06%
5,O=C(Nc1noc2ccccc12)c1cccc(F)c1,-12.8%
6,CCS(=O)(=O)NC(C)C(c1cccs1)N1CCN(c2ccc(F)cc2)CC1 (configuration not stated),active: 39.7%
7,Cc1nc2nc(C)c(CCC(=O)NCCCN3CCN(c4cccc(Cl)c4)CC3)c(C)n2n1,active: 88.7% and active: 72.6%
8,CC(C)c1ccc(NC(=O)C2CCCN(S(=O)(=O)c3cccc4nonc34)C2)cc1 (configuration not stated),-4.89%
9,CCc1ccc(NC(=O)C2CCCN(S(=O)(=O)c3c(C)[nH]c(=O)[nH]c3=O)C2)cc1 (configuration not stated),2.72%
10,COC(=O)c1ccc(Cn2nc(-c3ccc(C)c(C)c3)ccc2=O)cc1,-1.29%
11,CC(C)c1ccc(NS(=O)(=O)c2ccc3[nH]c(=O)ccc3c2)cc1,-23.4%
12,CCOc1ccc(CCNS(=O)(=O)c2c(C)nc3sc(C)cn3c2=O)cc1OCC,-3.08%
13,CC(=O)c1ccc(NC(=O)CCc2c(C)nn(-c3ccc4nncn4n3)c2C)cc1,22.1%
14,CSc1ccc(CCNC(=O)c2cc3n(n2)CCCN(Cc2ccc(C)cc2)C3=O)cc1,-3.49%
15,CCC1CN(C(=O)N2CCC(C(=O)NCCOC)CC2)c2ccccc2O1 (configuration not stated),11.9%
16,CCCCN(CC)CCCNC(=O)CC1Oc2ccccc2NC1=O (configuration not stated),active: 87%
17,Cc1ccc(NC(=O)CCS(=O)(=O)c2ccc3nc(C)sc3c2)cc1,1.98%
18,CCOc1ccccc1NC(=O)CSc1nnnn1-c1ccccc1,active: 31.1%
19,Cc1ccccc1C(=O)Nc1nnc(SCc2cc(=O)c3c(C)ccc(C)c3[nH]2)s1,-21.4%
20,CCc1ccc(NC(=O)Cn2nnc(C(=O)NCc3ccco3)c2N)cc1,-0.697%
21,CC1CCN(S(=O)(=O)c2cc(C(=O)NCc3ccc(F)cc3)n(C)c2)CC1,0.024%
22,COc1cccc(COC(=O)c2ccc(-c3nnn(Cc4ccccc4)n3)cc2)c1,-7.71%
23,O=C1C(c2ccc(F)cc2)N(CCc2ccccc2)C(=O)CN1C1CCCCC1 (configuration not stated),6.09%
24,COc1ccc(CN(C(=O)Nc2ccc(C)c(F)c2)C2CCN(C(C)=O)CC2)cc1,16%
25,CC(C)c1ccc(C(=O)Nc2cccc3cccnc23)cc1,-10.8%

row,Compound,inhibition
1,O=C(NCc1ccccc1)C1CCC(CNS(=O)(=O)c2ccc(Br)s2)CC1 (configuration not stated),-2.47%
2,COc1cc(NC(=O)Cn2c(=O)n(C(C)C)c(=O)c3oc4ccccc4c32)cc(OC)c1,-9.03%
3,CC1CCc2nn(CC(=O)Nc3cccc(C(F)(F)F)c3)c(=O)cc2C1 (configuration not stated),8.38%
4,COc1ccc(Cl)c(N2CCN(CCCNC(=O)Nc3ccc(C)cc3)CC2)c1,active: 35.6%
5,O=C(Nc1cccnc1Cl)c1cc(-c2ccc(Cl)cc2)on1,9.6%
6,Cc1ccc2c(Cl)c(C(=O)Nc3ccc4c(c3)OCO4)sc2c1,active: 33.6%
7,O=C(Nc1sc2c(c1C(=O)NCc1ccccc1)CCCC2)c1cc(=O)c2cc(Cl)ccc2o1,-2.17%
8,CCc1ccccc1N1CC(c2nc3ccccc3n2Cc2cccc(C)c2)CC1=O (configuration not stated),7.62%
9,O=C(Nc1nc2nc(-c3ccccc3)cc(=O)n2[nH]1)c1ccc(F)cc1,22.9%
10,CCOc1ccc(S(=O)(=O)NCCc2sc(-c3ccc(C)cc3)nc2C)cc1,12.1%
11,COc1cccc(CNC(=O)Cn2ccc3cc(S(=O)(=O)N4CCCC4)ccc32)c1,-7.21%
12,CCOc1ccccc1N1CC(c2nc3ccccc3n2CCCOc2ccccc2OC)CC1=O (configuration not stated),-0.582%
13,COc1ccc(Cl)cc1NC(=S)NCCc1ccc(F)cc1,active: 39.6%
14,COc1cc(-c2noc(-c3ccc(NCCc4ccccc4)c([N+](=O)[O-])c3)n2)cc(OC)c1OC,21.9%
15,COCC(=O)N1CCc2cc(OC)c(OC)cc2C1COc1ccc2c(C)cc(=O)oc2c1 (configuration not stated),10.6%
16,COc1cc(NC(=O)CCNS(=O)(=O)c2ccc3c(c2)CCN3C(=O)C2CC2)cc(OC)c1,7.21%
17,Cc1ccc(C)c(N2CCN(C(=O)c3ccc4c(Cl)c5c(nc4c3)CCCC5)CC2)c1,-0.11%
18,COc1cccc(CNC(=O)c2c(O)nc3ccccn3c2=O)c1,5.32%
19,CCOc1ccc(N2CC(c3nc4ccccc4n3CC(C)C)CC2=O)cc1 (configuration not stated),1.16%
20,COc1ccc(N2CCN(C(c3ccccc3)c3nnc(-c4ccccc4Cl)o3)CC2)cc1 (configuration not stated),12.7%
21,Cc1cccc(NC(=O)CSc2nc3c(oc4ccccc43)c(=O)n2C(C)C)c1,-2.1%
22,CC1=C(C(=O)NCCc2ccc(Cl)cc2)C2(CCCCC2)OC1=O,-7.81%
23,COCCNC(=O)CCCn1c(SCC(=O)Nc2cccc(C)c2)nc2c(sc3ccccc32)c1=O,-4.61%
24,COc1cccc(CNC(=O)Cn2ncc3c4ccccc4n(C)c3c2=O)c1,1.98%
25,COc1ccc(C(=O)c2oc3ccccc3c2NC(=O)COc2c(C)cc(C)cc2C)cc1,5.56%

row,Compound,inhibition
1,O=c1oc2ccc(Br)cc2cc1-c1nc(-c2ccccc2)no1,-11.6%
2,CCS(=O)(=O)N1CC(=O)N(c2ccc(C)c(C)c2)C(C)(C(=O)NC2CCCCC2)C1 (configuration not stated),-9.32%
3,CCc1ccc(-c2nc3c(c(SCc4ccc(F)cc4)n2)Cc2c(CO)cnc(C)c2O3)cc1,0.507%
4,Cc1ccc2c(CC(=O)Nc3cc(C(F)(F)F)ccc3Cl)coc2c1C,-2.77%
5,Cc1cc(C)c2c(=O)cc(C(=O)Nc3ccccc3Cl)oc2c1,8.73%
6,CCC12CN3CC(CC)(CN(C1)C3c1ccc(OCc3ccccc3)cc1)C2=O (configuration not stated),-6.3%
7,CCOC(=O)c1c(C)[nH]c(C)c1S(=O)(=O)N1CCC(C(=O)Nc2ccccn2)CC1,2.03%
8,COc1ccc(C2CC(=O)Nc3c2c(=O)nc2c(C)cccn32)cc1 (configuration not stated),-0.661%
9,Cc1ccc2oc(=O)n(CCNC(=O)Nc3ccccc3Cl)c2c1,21.7%
10,Oc1ccccc1N1CCN(Cc2ncc(-c3ccccc3)o2)CC1,active: 56.9%
11,COc1cc(OC)cc(C(=O)Nc2ccc3nc(N4CCC(C)CC4)cc(C)c3c2)c1,-3.32%
12,COc1cccc(C(=O)Nc2nnc(S(=O)(=O)N3CCOCC3)s2)c1,-13.4%
13,CCCCOc1cccc(C(=O)Nc2cccc3ccc(C)nc23)c1,-8.73%
14,Cc1ccc(CS(=O)(=O)Cc2ccc(C(=O)NCCc3ccc(Cl)cc3)o2)cc1,-7.97%
15,Cc1cc(=O)[nH]c(-n2nc(C)cc2C)n1,active: 43.8%
16,Cc1cc(-c2ccc(C)c(S(=O)(=O)NCc3ccc(Cl)cc3)c2)on1,-0.801%
17,CCCS(=O)(=O)NCCc1csc2nc(-c3ccc(OC)cc3)nn12,-9.33%
18,CCc1c(C)nc2nncn2c1Nc1ccc(C)c(F)c1,9.06%
19,Cc1ccccc1CNC(=O)CCCn1nc(C)c2sc3ccccc3c2c1=O,-9.15%
20,COc1ccc(C2NC(=O)NC(C)=C2C(=O)Nc2cc(C)cc(C)c2)c(OC)c1 (configuration not stated),2.07%
21,CN(Cc1ccccc1)c1ncnc2c1nc1n2CCCC1,-8.92%
22,COc1ccccc1N(CC(=O)NCCSCc1ccc(Cl)cc1)S(C)(=O)=O,3.89%
